Measurements from PubChem BioAssay AID488969 (Vanderbilt High Throughput Screening Facility, 2010).
Whole data set: some 110,000 compounds, median “z-score” near -0.1, cut for the highest 2% near 2. Some of the results follow. Calls of active or inactive are those of the source.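 The calls were made as follows: active = z-score in the third read window above 3 or below -3; inactive = the rest.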

Target: Metabotropic glutamate receptor 8 (Rattus norvegicus) (UniProt P70579)
Experiment: mGluR8 Gi/Go-coupled signaling modulation – cell-based, rat, thallium flux, HTS, primary screen (AID 488969)
Settings: HEK293 rat mGluR8, GIRK (G protein-gated inwardly rectifying potassium channel) thallium flux, FluoZin2; at 10 µM; stronger effect = higher value; submaximal glutamate (EC20) added with thallium

Sequence of UniProt P70579 (P70579 whole entry, looked up): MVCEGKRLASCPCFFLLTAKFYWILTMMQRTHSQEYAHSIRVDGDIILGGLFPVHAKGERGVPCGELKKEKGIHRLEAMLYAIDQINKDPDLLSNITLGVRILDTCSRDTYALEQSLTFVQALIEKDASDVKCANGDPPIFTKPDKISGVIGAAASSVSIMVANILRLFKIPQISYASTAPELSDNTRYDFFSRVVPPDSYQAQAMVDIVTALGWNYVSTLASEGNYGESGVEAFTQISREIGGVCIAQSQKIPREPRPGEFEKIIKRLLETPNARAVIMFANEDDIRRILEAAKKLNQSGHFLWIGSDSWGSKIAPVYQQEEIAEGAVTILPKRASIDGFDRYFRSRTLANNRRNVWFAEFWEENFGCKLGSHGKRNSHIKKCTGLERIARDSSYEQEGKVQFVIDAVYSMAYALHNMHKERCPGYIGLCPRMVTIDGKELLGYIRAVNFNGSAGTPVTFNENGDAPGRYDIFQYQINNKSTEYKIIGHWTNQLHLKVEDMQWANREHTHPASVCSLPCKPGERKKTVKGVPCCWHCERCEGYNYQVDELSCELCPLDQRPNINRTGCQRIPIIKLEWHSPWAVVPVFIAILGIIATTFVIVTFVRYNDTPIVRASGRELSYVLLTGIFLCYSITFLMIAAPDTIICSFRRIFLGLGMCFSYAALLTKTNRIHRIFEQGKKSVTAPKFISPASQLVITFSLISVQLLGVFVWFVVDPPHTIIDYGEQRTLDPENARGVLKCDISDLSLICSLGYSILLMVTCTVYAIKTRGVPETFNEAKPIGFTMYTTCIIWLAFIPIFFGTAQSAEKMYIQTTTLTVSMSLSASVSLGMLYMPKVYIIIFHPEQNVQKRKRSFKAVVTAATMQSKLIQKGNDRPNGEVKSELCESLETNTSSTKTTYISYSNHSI

| SMILES | z-score |
| --- | --- |
| COCCCNCCCOc1ccc(C(C)(C)c2ccccc2)cc1 | 0.152 |
| Cc1nc2ccc(C(=O)O)cc2nc1C | -0.172 |
| Cc1ccc(-n2ncc(C(=O)NCc3ccc4c(c3)OCO4)c2NC(=O)c2ccco2)cc1C | 0.00765 |
| Cc1cc(/C=C2/C(=N)N3C(c4ccccc4)=CSC3=NC2=O)c(C)n1-c1ccccc1 | 0.0803 |
| O=[N+]([O-])c1ccc(N2CCOCC2)nc1 | -0.261 |
| CCOc1ccc(NCC(=O)Nc2ccc(C)cc2C)cc1 | -0.135 |
| CCC(C)[C@H](NC(=O)NCCCn1ccnc1)C(=O)OC (stereo not given in full) | -0.23 |
| Cc1cc(=O)[nH]c(-c2ccccc2)n1 | -0.314 |
| CCOC(=O)C1=C(CSc2nc(C)cc(C)c2C#N)OC(N)=C(C#N)C1c1ccccc1 (stereo not given) | -0.479 |
| Cc1cc2nnc(SCc3ccccc3)n2c(N)n1 | -0.298 |
| CCOC(=O)c1sc(NC(=O)COC(=O)c2ccco2)nc1C | 0.0458 |
| COc1ccc(Cl)cc1NC(=O)CSc1nnc(CN2CCOCC2)n1-c1ccc(Cl)cc1 | -0.416 |
| N#CC1=C(N)NC(SCc2ccc(Br)cc2)=C(C#N)C12CCCCC2 | 0.18 |
| Cc1ccc(C)c2[nH]c(=O)c(CCNS(=O)(=O)c3ccccc3)cc12 | 0.0635 |
| Cc1cc(-c2ccccc2)n(-c2ccc(C(=O)NC(C)C)cc2)n1 | -0.189 |
| COC(=O)Nc1ccc2c(c1)N(C(=O)CCN1CCN3CCCC3C1)c1ccccc1S2 (stereo not given) | -0.481 |
| O=C(NCCCn1ccnc1)/C(=C\c1cccs1)NC(=O)c1ccco1 | -0.345 |
| C#CCn1c(S(=O)(=O)Cc2ccccc2Cl)nc(-c2ccccc2)c1-c1ccccc1 | -0.358 |
| CCC(CC)C(=O)Nc1ccc(Cl)c(Cl)c1 | -0.495 |
| CCN(CCNC(=O)Cn1c(=O)sc2ccccc21)c1ccccc1 | -0.053 |
| CCOC(=O)c1nc(Nc2ccccc2)c2ccccc2n1 | -0.162 |
| COc1cc(NC(=S)NCCSc2ccc(C)cc2)cc(OC)c1 | -0.204 |

| SMILES | z-score |
| --- | --- |
| Cc1ccc(Cn2nc(C)c(NC(=O)CSc3nc4c(c(C(F)(F)F)n3)CCc3ccccc3-4)c2C)cc1 | -0.26 |
| O/N=C/c1cc(Cl)ccc1OCc1cccc2ccccc12 | 2.76 |
| O=C(CCC1CCCC1)Nc1ccon1 | -0.0106 |
| Cc1[nH]nc(-c2ccc(OCc3cnn(-c4ccccc4)c3)cc2O)c1Oc1ccc(Cl)cc1 | -0.0976 |
| N/C(=N\OC(=O)COc1ccccc1)c1ccccn1 | 0.0424 |
| CCCCc1nc(Cl)c(C#N)c2c1CCCC2 | -0.174 |
| COc1ccc(-c2nc(Cc3ccc(Cl)cc3)no2)cc1OC | -0.563 |
| O=C(Nc1nnc(SCc2ccc(F)cc2)s1)C1CC(=O)N(c2ccc3c(c2)OCCO3)C1 (stereo not given) | active: 3.68 |
| Cc1ccc(S(=O)(=O)NCCCNC(=O)N2CCOCC2)cc1 | -0.248 |
| Cc1cc(NC(=O)CC(C)(C)C)nc2c1c(=O)oc1ccccc12 | 0.671 |
| CS(=O)(=O)N(CC(=O)NCCSC1CCCCC1)c1cccc(F)c1 | -0.0553 |
| O=C(N/N=C/C=C\c1ccccc1[N+](=O)[O-])c1ccccn1 | -0.0802 |
| Cc1nnc(NC(=O)CSc2nnc(Cc3ccccc3)n2-c2ccccc2)s1 | -0.123 |
| O=C(CSc1nnc2scc(-c3ccc(Cl)cc3)n12)NCc1ccc2c(c1)OCO2 | -0.42 |
| Cc1cccc(NC(=S)/N=C(\N)Nc2nc(C)c3ccc(C)cc3n2)c1 | -0.215 |
| Cc1cc(C)cc(NC(=S)NCc2ccc(F)cc2)c1 | 0.26 |
| COc1ccc(CC(=S)N2CCOCC2)cc1F | -1.4 |
| CCC1=NC(c2ccc(OC)c(OC)c2)N(O)C1(C)C (stereo not given) | -0.349 |
| Cc1nn(C(C)(C)C)c(OC(=O)c2ccco2)c1Sc1ccccc1 | -0.112 |
| [N-]=[N+]=CC(=O)CC(c1ccccc1)N1C(=O)c2ccccc2C1=O (stereo not given) | 0.692 |
| COC1(OC)C(/C=C/c2ccc(C)cc2)C(C#N)(C#N)C1(OC)OC (stereo not given) | -0.364 |
| CN(C(=O)c1ccccc1)c1ccc(OCC(=O)NC2CCS(=O)(=O)C2)cc1 (stereo not given) | 0.202 |

| SMILES | z-score |
| --- | --- |
| COC(=O)c1[nH]c(C)c(/C(O)=C2\C(=O)C(=O)N(CCN(C)C)C2c2cccs2)c1C (stereo not given) | -0.364 |
| CC(C)OC(=O)CCCN1C(=O)c2ccc(N)cc2C1=O | -0.888 |
| O=C(N/N=C\c1ccco1)Nc1cccc(Cl)c1 | -0.392 |
| CCn1c(CNC(=O)c2ccccc2)nc2ccccc21 | -0.178 |
| CCn1cnc2cc(NCc3ccc(C)cc3)ccc21 | -0.203 |
| Cc1ccc(/C=N/N2C(=O)C3C(C2=O)C2C=CC3C23CC3)o1 (stereo not given) | -0.147 |
| O=C1N/C(=N\N=C\c2ccc3ncccc3c2)SC1Cc1ccc(SC(F)F)cc1 (stereo not given) | -0.253 |
| CSc1ccccc1NC(=O)c1c(C)noc1C | -0.561 |
| CCCCn1c(SCC(=O)N2CC(=O)Nc3ccccc32)nnc1-c1ccoc1C | -0.111 |
| CCOC(=O)C1CCN(C(C(=O)NC2CCCC2)c2ccc(C)cc2)CC1 (stereo not given) | -0.427 |
| Cc1ccc(C#N)c(SCc2cc3c(cc2Cl)OCO3)n1 | -0.345 |
| COc1ccc(S(=O)(=O)N(C)CC(=O)Nc2ccccc2C(F)(F)F)cc1 | 0.34 |
| Cc1ccc(N2CC(C(=O)Oc3cccc(N4C(=O)CCC4=O)c3)CC2=O)cc1 (stereo not given) | -2.47 |
| Cc1[nH][nH]c(=O)c1C(c1c(C)[nH][nH]c1=O)c1cn(Cc2ccc(Cl)c(Cl)c2)c2ccccc12 | -0.275 |
| Cc1cccc(C(=O)O/N=C/c2c(Cl)n(C)c3ccccc23)c1 | 0.132 |
| COC(=O)c1ccc(/C=N/NC(=O)CC(=O)NC(C)C)cc1 | -0.108 |
| O=C1CCCc2c1cc(C(=O)Nc1ccc(Br)cn1)c(=O)n2-c1ccccc1 | -0.203 |
| COc1ccccc1NC(=O)Cn1cnc2c(cnn2-c2ccccc2)c1=O | -0.593 |
| CCCCC[n+]1ccn(C2=C([O-])c3ccccc3C(=O)/C2=N\S(=O)(=O)c2ccccc2)c1 | -0.188 |
| CC1CCCCN1C(=O)Cn1c(=O)n(CCC(=O)NCc2ccco2)c(=O)c2sccc21 (stereo not given) | -0.686 |
| CCCCN(C(=O)CN1CCOCC1)c1c(N)n(CC(C)C)c(=O)[nH]c1=O | -0.17 |
| Cc1ccc2oc(=O)c3cnn(CC(=O)N4CCCc5ccccc54)c3c2c1 | -0.255 |

| SMILES | z-score |
| --- | --- |
| COC(=O)C1CCN(C(=O)c2c(-c3ccccc3Cl)noc2C)CC1 | 0.00573 |
| COc1ccc(C(=O)Nc2cccnc2)cc1 | 0.000698 |
| CC(C)C1=NN2C(=N)CC(=O)N=C2S1 | 0.235 |
| CCOc1ccc(C2=NNC(c3cccs3)=Nc3ccc(OCC)cc32)cc1 | -0.166 |
| N#Cc1c(-c2ccccc2)cc(-c2ccco2)c(C#N)c1N | -0.84 |
| COc1ccc(C(CNC(=O)c2cc3ccccc3cc2OC)N2CCCC2)cc1 (stereo not given) | 0.898 |
| COc1ccc(-c2cn3cccnc3n2)cc1NC(=O)C1CCCC1 | 1.23 |
| Cc1ccc2nc(/C(C#N)=N/O)[nH]c2c1 | -0.703 |
| COC(=O)C(C)Sc1nc2c(c(=O)n(C)c(=O)n2C)n1Cc1cccc(C)c1 (stereo not given) | active: -3.65 |
| CCN(CC)Cc1c(-c2ccccc2)[nH]c2ccc(C)cc2c1=O | 0.0208 |
| CCCn1c(N)c(C(=O)CSc2nnnn2-c2ccc(O)cc2)c(=O)n(C)c1=O | -0.148 |
| CC1CN=C(NC2CCCCC2C)S1 (stereo not given) | 0.0666 |
| CCc1cc(C(=O)NNC(=S)Nc2cc(C)ccc2C)cs1 | active: 6.35 |
| OCCSc1nnc(Nc2ccccc2)s1 | 0.0141 |
| O=C(c1ccccc1)N1CCN(C(=O)C23CC4CC(CC(C4)C2)C3)CC1 | 0.736 |
| O=C1c2ccccc2NC(c2cccc(Cl)c2)N1N=C1CCCCCC1 (stereo not given) | -0.359 |
| CCC(Sc1nc2cc(OC)c(OC)cc2c(=O)n1Cc1ccco1)C(=O)NCCOC (stereo not given) | -0.352 |
| COc1ccc(OC)c(NC(=S)NCCCN2CCOCC2)c1 | 0.347 |
| CCOc1cc(NC(=O)C2CCCCC2)c(OCC)cc1NC(=O)c1ccco1 | -0.0375 |
| O=C(NCCCCc1ccccc1)C12CN(Cc3ccccc3)CC1C(c1ccc([N+](=O)[O-])cc1)=NO2 (stereo not given) | 0.105 |
| COc1ccc(S(=O)(=O)N2CCCC(C(=O)N3CCOCC3)C2)cc1C (stereo not given) | -0.0151 |
| CN=C1SC(CC(=O)Nc2sc(C)c(C)c2C(=O)OC)C(=O)N1C (stereo not given) | -0.51 |

| SMILES | z-score |
| --- | --- |
| C=CCN1C(=O)CSC1=Nc1ccc(O)cc1 | 0.0136 |
| O=C(Nc1ccc(NC(=S)NC(=O)c2cccs2)cc1)c1ccccc1 | -0.193 |
| CCOC(=O)c1c(C)[nH]c(C)c1C(=O)COC(=O)CNC(=O)c1ccc(OCC)cc1 | -0.688 |
| Cc1ccc(Nc2nc(N)nc(CN3CCCCCC3)n2)cc1 | 0.0288 |
| Cc1ccc(Oc2cc(NC(=O)CCCn3nc(C)c([N+](=O)[O-])c3C)cc([N+](=O)[O-])c2)cc1 | -0.0677 |
| CC(C)CCNC(=O)NC(=O)CSc1nnc(-c2ccccc2Br)o1 | -0.569 |
| Cc1sc2ncnc(N3CCN(c4ncccn4)CC3)c2c1C | -0.294 |
| Cc1c(N=CN2CCOCC2)c(=O)n(C)c(=O)n1C | -0.0259 |
| CC1=Nn2c(nnc2-c2ccco2)SC1 | -0.0698 |
| Clc1ccc(NC2(c3nnnn3C3CCCCC3)CCCCC2)cc1 | -0.224 |
| OC(COCC(F)(F)C(F)(F)C(F)(F)C(F)F)Cn1c2ccc(Cl)cc2c2cc(Cl)ccc21 (stereo not given) | -0.101 |
| O=C(Nc1ccc(Cl)cc1C(=O)N1CCOCC1)c1ccco1 | -0.00242 |
| CCCN(CCC)CCCNC(=O)c1cn(CCOC)c(=O)c2c1c1ccccc1n2C | -0.165 |
| O=C1S/C(=C/c2ccccc2)C(=O)N1CC(O)Cn1c2ccccc2c2ccccc21 (stereo not given) | 0.716 |
| Cc1ccc2c(C)ccc(O)c2n1 | -0.0844 |
| O=C(CN1CCN(c2ccccc2F)CC1)c1c[nH]c2ccc(F)cc12 | 0.575 |
| O=C(c1ccco1)N1CCN(c2cc(=O)n(C3CCCCC3)c(=O)[nH]2)CC1 | -0.0284 |
| CNC(=S)N/N=C/c1cn(CCOc2ccc(OC)cc2)c2ccccc12 | -0.0929 |
| O=C(COc1ccccc1)NC(=S)N1CCc2ccccc21 | active: 10.1 |
| O=C/C(=C\Nc1ccc(Cl)cn1)c1nc2cc(Cl)ccc2o1 | -0.0503 |
| O=C(COC(=O)c1ccncc1)Nc1cc(Cl)ccc1Cl | 0.00286 |
| COC(=O)c1ccccc1NC(=O)c1noc2c1CC(C(C)(C)C)CC2 (stereo not given) | 0.705 |
